About 120 (0.75%) of roughly 16,000 compounds were called active. Roughly 4% stayed inconclusive and do not appear here. Calls come from the whole dose curve; as a rule, active = well fitted inhibition curve with a large enough effect; inconclusive = small, poorly fitted or top-dose-only effect; inactive = no such curve, though single readings can be large or run the other way. This is one part of the list.
Each molecule was assayed against Rap guanine nucleotide exchange factor 3 (Homo sapiens) (UniProt O95398) (assay: Validation qHTS for antagonist of cAMP-regulated guanine nucleotide exchange factor 3 (EPAC1)). Conditions: EPAC1 Rap1B-BODIPY-GDP exchange, fluorescence; series mostly up to 150 µM; activity change, negative = inhibition: at the top concentration.
Sequence of UniProt O95398 (O95398 whole entry, looked up): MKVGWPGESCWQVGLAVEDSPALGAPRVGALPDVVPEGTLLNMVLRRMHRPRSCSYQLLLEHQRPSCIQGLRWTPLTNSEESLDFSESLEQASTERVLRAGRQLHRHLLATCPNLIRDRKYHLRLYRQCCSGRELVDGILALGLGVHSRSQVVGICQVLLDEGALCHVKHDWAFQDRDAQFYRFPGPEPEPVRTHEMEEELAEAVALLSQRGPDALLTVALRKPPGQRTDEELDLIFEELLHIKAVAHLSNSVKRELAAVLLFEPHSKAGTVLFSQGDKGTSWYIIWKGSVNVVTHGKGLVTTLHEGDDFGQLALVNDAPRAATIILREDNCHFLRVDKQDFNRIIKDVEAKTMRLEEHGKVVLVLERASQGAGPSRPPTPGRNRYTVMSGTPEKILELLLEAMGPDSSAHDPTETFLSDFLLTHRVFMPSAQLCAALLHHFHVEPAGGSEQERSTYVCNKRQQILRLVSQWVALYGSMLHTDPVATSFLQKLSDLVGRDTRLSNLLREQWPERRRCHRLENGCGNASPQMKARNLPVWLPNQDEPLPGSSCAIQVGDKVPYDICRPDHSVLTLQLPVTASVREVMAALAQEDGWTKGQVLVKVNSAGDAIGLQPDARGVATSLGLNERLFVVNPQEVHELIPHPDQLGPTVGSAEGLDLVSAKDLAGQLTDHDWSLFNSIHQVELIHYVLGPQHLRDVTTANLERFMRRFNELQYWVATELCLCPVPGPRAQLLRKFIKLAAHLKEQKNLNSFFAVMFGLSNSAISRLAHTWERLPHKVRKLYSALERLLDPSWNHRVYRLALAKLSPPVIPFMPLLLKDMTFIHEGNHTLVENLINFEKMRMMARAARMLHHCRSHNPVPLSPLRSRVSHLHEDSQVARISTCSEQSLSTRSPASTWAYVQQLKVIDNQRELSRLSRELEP
In short: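 Nucleotide exchange followed as fluorescence loss when BODIPY-GDP leaves Rap1B (480 nm excitation, 540 nm emission), read at 5 min intervals over 30 min. Reaction: 100 nM EPAC1, 250 nM RAP1B-BODIPY-GDP, 50 uM GDP; ATA and DMSO define normalization.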
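Note: plate controls were DMSO for no effect and ATA control for full effect; nearly all actives have a fitted effect of over 75% in size.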

Activity change, negative = inhibition, inactive:
Cc1nc2cnc(Oc3cccc(Cl)c3)nc2n(Cc2ccc(F)cc2)c1=O 4.32%
CC(=O)c1ccc[nH]1 -15.2%
CN1[C@@H]2CC(OC(=O)[C@H](CO)c3ccccc3)C[C@H]1[C@@H]1O[C@@H]12 (some centres not stated)
CCNc1ncc2nc(-c3ccc(Cl)cc3)c(=O)n(C3CC3)c2n1 19%
CCC1CN(Cc2cccc3nccnc23)Cc2cc(OC)ccc2O1 (configuration not stated) 11.3%
O=C(c1cnccn1)N1CCC2(CCCN(c3ncccn3)C2)CC1 -5.2%
COCC(=O)N1CCC2(CC1)CN(C(=O)Nc1ccc(OC)cc1)C2 8.27%
COc1ccc2c3c1OC1C[C@@H](O)C=C[C@@]31CCN(C)C2 (some centres not stated) 16.1%
Cc1cc(C(=O)NCC2CCC3(CCN(Cc4ccc(-c5ccccc5)cc4)CC3)O2)n(C)n1 (configuration not stated) -4.77%
CC/C(=C/c1ccccc1OC)c1cc(-c2ccccc2)cc2oc3ccccc3c12 -10.5%
COc1cccc(-c2nccc(NCc3cccc(C)c3)n2)c1 -14.8%
COc1ccc(-c2nc3cnc(N4CCOCC4)nc3n(CCc3ccccc3)c2=O)cc1 25.4%
C=CCN([C@H](C(=O)OC)C(C)C)S(=O)(=O)CCNCc1ccccc1 12.7%
COCCn1c(=O)c(-c2ccccc2)nc2cnc(Oc3cccc(Cl)c3)nc21 5.44%
COc1ccc(CN2[C@@H](CC(=O)O)c3cc(F)ccc3S2(=O)=O)cc1 6.33%
CC1=C(C(=O)OCc2cc(C)on2)N2C(=O)[C@@H](NC(=O)OCc3cc(C)on3)[C@H]2SC1 10.9%
COc1ccc([C@@H](C)C(=O)c2ccc(O)cc2O)cc1 -8.21%
Cc1cnnc2ccccc12 12.8%
CCCCCCCC(=O)OCC(O)CO (configuration not stated) 20.4%
COc1ccc2c(c1)OCC(Cc1ccc(OC)c(OC)c1)C2O (configuration not stated)
CO[C@H]1[C@H](NC(=O)c2ccco2)c2ccccc2C12CCN(Cc1cnc(N(C)C)s1)CC2 15%
c1ccc(-c2nc[nH]c2-c2ccccc2)cc1 14.4%
Cc1c(C(=O)NCC(C)(C)N2CCOCC2)cnn1-c1nccc(-c2cccs2)n1 13.5%
[O-][N+](=Nc1ccccc1)c1ccccc1 9.43%
O=C(C[n+]1cccc2ccccc21)c1ccc(F)cc1 26%
O=C1CCN(Cc2cccc(C(F)(F)F)c2)CCN1Cc1ccccn1 2.45%
NCCC(=O)N[C@H](Cc1cnc[nH]1)C(=O)O 7.46%
NC(Cc1cc(I)c(Oc2ccc(O)c(I)c2)c(I)c1)C(=O)O (configuration not stated) 23.5%
C[C@@H]1CCC(=O)N(CC[C@H](N=[N+]=[N-])c2ccccc2)CC1 -9.74%
C=C(C)C1COc2cc3oc(=O)ccc3cc2O1 (configuration not stated) 17.1%
Cc1nn(C)cc1CN1CCOc2ccc(CN3CCC(Oc4cccnc4)CC3)cc2C1 1.46%
Oc1ccc(-c2nc(-c3ccc(F)cc3)c(-c3ccncc3)[nH]2)cc1
COc1cccc(-c2cncnc2NC2CCNCC2)c1 15.1%
CCCCCc1ccc(-c2cn(Cc3ccc(C(=O)c4ccccc4)cc3)nn2)cc1 -9.22%
O=c1n(CCCN2CCN(c3cccc(Cl)c3)CC2)nc2ccccn12
COC(=O)C[C@H]1c2cc(C(F)(F)F)ccc2S(=O)(=O)N1C1CCCC1 5.73%
CC(=O)NCCCCCC(=O)O 12.5%
O=C(O)c1cc(=O)[nH]c(=O)[nH]1 3.23%
O=c1c(-c2ccc(Cl)cc2)nc2cnc(Nc3ccccc3)nc2n1C1CC1 14.9%
c1csc(CNc2nc(-c3ccc4c(c3)OCO4)nc3ccccc23)c1 -11.7%
O=C(c1cc(-c2ccccc2)on1)N1CCOc2ccc(CN3CCN(c4ccccn4)CC3)cc2C1 6.85%
COc1cccc(Cn2c(=O)c(C)nc3cnc(Nc4cccc(OC)c4)nc32)c1 3.16%
CCCCC/C=C\C=C\[C@H](O)CCCCCCCC(=O)O 18.8% [at 1.57 µM]
CN1C[C@H](C(=O)N[C@]2(C)O[C@@]3(O)C4CCCN4C(=O)[C@H](Cc4ccccc4)N3C2=O)C[C@@H]2c3cccc4[nH]cc(c34)C[C@H]21 (some centres not stated) 2.41%
O[C@@H](CNC[C@H](O)[C@H]1CCc2cc(F)ccc2O1)[C@@H]1CCc2cc(F)ccc2O1 32.6%
CCCCCC(=O)/C=C/C=C\CCCCCCCC(=O)O 12.2% [at 1.57 µM]
Oc1ccc(Cl)cc1Sc1cc(Cl)ccc1O -15.1%
CC(=O)Nc1ccc(C(=O)N2CCCC(c3nc(SCc4ccccn4)ncc3C)C2)cc1 (configuration not stated) 20.1%
CC(=O)N1CCC2(CC1)CN(C(c1ccccc1)c1ccccc1)C2 12.1%
CC1(C)S[C@@H]2[C@H](NC(=O)[C@H](N)c3ccccc3)C(=O)N2[C@H]1C(=O)O 9.83%
O=C(Nc1cccc(F)c1)N1CCC2(CC1)CCN(C(=O)c1cnccn1)CC2 11.1%
COc1ccccc1CN1CC[C@@]2(CCCN(C(=O)c3c(C)noc3C)C2)C1 2.34%
C[N+]1(C)C2CC(OC(=O)C(CO)c3ccccc3)CC1C1OC12 (configuration not stated) 24.8%
CCC1(C2CCN(C(=O)c3ccccc3C)CC2)NC(=O)N(CCc2scnc2C)C1=O (configuration not stated) 16.5%
NC(CS)C(=O)O (configuration not stated) 11.4%
O=C(c1csnn1)N1CCC[C@@]2(CCN(c3cccc(-c4ccccc4)c3)C2)C1 16%
CS(=O)(=O)Nc1c(O)ccc2c1CCCC2C1=NCCN1 (configuration not stated) 29.2%
COCCNc1ncnc2ccc(-c3ccoc3)cc12 9.68%
COc1ccc(C(=O)N2CCC3(CCN(Cc4nccs4)CC3)CC2)cc1 29.9%
COc1ccc2cc([C@H](C)C(=O)O)ccc2c1
O=C(O)/C=C1\CCCc2ccccc2C1O (configuration not stated) 14.8%
NC(=O)[C@@H]1CCCN1C(=O)CC1(c2cccc(F)c2)CC(=O)N(C2CCCC2)C1=O (some centres not stated) 15.2%
COc1cc(OC)cc(C(=O)N2CCCC(n3cc(C(=O)NCC(C)C)nn3)C2)c1 (configuration not stated) -0.633%
O=C(O)[C@H]1CCCNC1 6.98%
C[C@]12CCC(=O)C=C1[C@@H]1C[C@@H]1[C@H]1[C@@H]3[C@@H]4C[C@@H]4[C@@]4(CCC(=O)O4)[C@@]3(C)CC[C@@H]12 22.4%
N#Cc1cccc(-c2cc(NCc3ccccc3)ncn2)c1 -1.97%
C=C(C)[C@H]1CC=C(C)C(=O)C1 16.7%
Cc1noc(C)c1-c1ccc2ncnc(NC3CCNCC3)c2c1 19.5%
Cc1c(C(=O)NCCc2cccnc2)cnn1-c1nccc(-c2ccccc2F)n1 1.64%
CC(=O)C[C@H]1c2ccccc2S(=O)(=O)N1C1CCCCC1 2.7%
CC1=C(/C=C/C(C)=C/C=C/C(C)=C/CO)C(C)(C)CCC1
COC(=O)c1ccccc1C(=O)NCc1nc(N2CCCC2)c2cccc(C)c2n1 9.4%
Cc1noc(C)c1C(=O)N1CCC2(CCN(Cc3cc(C(F)(F)F)cc(C(F)(F)F)c3)CC2)CC1 -13.8%
COc1ccccc1N1CCN(CCN(C(=O)c2ccc(I)cc2)c2ccccn2)CC1 -11.8% [at 75.8 µM]
COc1ccccc1CCc1nc2ccccc2n1C1CCN(C(=O)c2cc(C)nn2C)CC1 12.7%
O=C(O)c1ccccc1OP(=O)(O)O 16.5%
O=S(=O)(c1ccccc1)N1CCC2(CC1)CN(c1ncccn1)C2 -9.22%
OC1(c2ccc(Cl)cc2)CCN(Cc2c[nH]c3ccccc23)CC1
COC(=O)c1c(C)cc(OC(=O)c2c(C)cc(O)c(C=O)c2O)c(C)c1O 5.59%
C/C=C(/C(=C/C)c1ccc(O)cc1)c1ccc(O)cc1
Nc1nc2[nH]c(=O)[nH]c2c(=O)[nH]1 14.1%
COc1ccccc1CN1CC2(CCN(S(=O)(=O)c3ccccc3)CC2)C1 1.32%
Cc1ncc([N+](=O)[O-])n1CC(C)O (configuration not stated) 14.5%
O=C(NC1CCCC1)c1cn(C2CCCN(Cc3ccc4c(c3)OCCO4)C2)nn1 (configuration not stated) -0.456%
O=c1c2ccccc2oc2ccc(Oc3ccccc3)cc12 -13%
CC(C)C[C@H](NC(=O)N1CCCCCC1)C(=O)N[C@H](Cc1cn(C)c2ccccc12)C(=O)N[C@H](Cc1ccccn1)C(=O)O 8.7%
NC(=Nc1ccccc1)NC(=O)c1nc(Cl)c(N)nc1N
Clc1ccc(-n2cccc2CN2CCc3nnc(Cc4ccccc4)n3CC2)nc1 11.9%
C[C@]12CCC(=O)C=C1CC[C@@H]1[C@H]2[C@@H](O)C[C@@]2(C)[C@H]1CC[C@]2(O)C(=O)CO 18.8%
CO[C@H]1[C@H](NC(=O)c2ccsc2)c2ccccc2C12CCN(Cc1ccc3c(c1)OCO3)CC2 3.91%
CN1CCN(CCC=C2c3ccccc3Sc3ccc(S(=O)(=O)N(C)C)cc32)CC1
CC(=O)NCCNc1nc(-c2cccc(C#N)c2)nc2ccccc12 -0.185%
CC1=C(/C=C/C(C)=C/C=C/C(C)=C\CO)C(C)(C)CCC1 26.8%
CCOC(=O)C[C@H]1c2ccccc2S(=O)(=O)N1C1CC1 18.2%
Cc1cc[n+](CCC2CCCCC2)c2ccccc12 21.3%
Cc1ccc(-n2cc(CCCCCCCCC(=O)O)nn2)cc1 -6.33%
Nc1ccc(C(=O)O)cc1
CCN1CCCC(OC(=O)C(c2ccccc2)c2ccccc2)C1 (configuration not stated)
CN1CCN(c2ncc3nc(-c4cc(F)cc(F)c4)c(=O)n(-c4ccccc4)c3n2)CC1 -1.52%
[N-]=[N+]=NC[C@H](Cc1ccccc1)N1CC[C@@H](O)CCC1=O 6.48%
COc1ccc(C(=O)N2CCC3(CC2)CN(C(=O)NC(C)C)C3)cc1 10.6%
COCCn1c(=O)c(C)nc2cnc(N3CCOCC3)nc21 2.6%
O=C(O)C[C@H]1c2cc(F)ccc2S(=O)(=O)N1C1CCCC1 11.6%
CC(=C\c1ccccc1)/C=C1/SC(=S)N(CC(=O)O)C1=O 25.3%
COc1c(C)c2c(c(O)c1C/C=C(\C)CCC(=O)O)C(=O)OC2
Clc1ccccc1-c1nc(-c2ccncc2)no1 11.6%
COc1ccc(Oc2ncc3nc(-c4ccc(OC)cc4)c(=O)n(C4CC4)c3n2)cc1 5.81%
